Data from the supplement of paper PMC7826260.
The list shows a part of the results. Viral Rep nickase domains cut single-stranded DNA in vitro (3 µM enzyme, 1 h, 37 °C); shown is the middle of each 90-letter strand. Uncut reads are compared with the no-enzyme pool on a log2 scale; strong cutting gives strongly negative numbers. There is no active / inactive call. Shares of all reads are compared; values above 0 arise when much of the pool is cut.

System: T1, Rep nickase domain of tomato golden mosaic virus
T1 sequence (Rep 1-124, printed without the tag): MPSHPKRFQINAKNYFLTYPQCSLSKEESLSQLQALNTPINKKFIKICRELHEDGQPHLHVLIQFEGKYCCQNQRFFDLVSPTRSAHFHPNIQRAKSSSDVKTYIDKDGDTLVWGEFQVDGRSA
Test: uncleaved DNA left, log2 of reads against the no-enzyme library (log2 ratio); higher = less cleavage (more negative = more Rep cleavage of the k-mer); sequences stand for … in CTCGTCCG…ACCGGAGA
Experimental: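 A pool of 90-nt single-stranded DNAs with seven random bases just before the constant AC of the nick site (name = the seven bases) was cut by 3 µM recombinant His6-SUMO-tagged Rep nickase domain (300 nM DNA, 50 mM HEPES pH 8.0, 50 mM NaCl, 1 mM MnCl2, 1 h, 37 °C, three replicates). Uncut DNA was amplified and sequenced.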

Sequence	uncleaved DNA left (log2)
TCATGCT	-0.173
ACTCCAC	-0.0615
CGGGCTT	0.026
CCCCAAG	-0.0989
CCCAAGT	-0.113
CCCCGAA	0.0248
TGTCAAC	0.156
TACCTCG	0.00691
TCTCCAA	-0.0514
TGGACAG	-0.0114
CGGGTGA	0.0502
GGCATTC	0.0189
CGTGTGG	-0.0357
AATAGTT	-0.0433
GCGTCAA	0.183
ATGCAAA	-0.0243
ATATGAG	-0.0719
CAAGAGT	-0.182
GATTGCT	0.0444
CAGCTAT	-0.0056

Sequence	uncleaved DNA left (log2)
CTACGCG	0.11
GACTCCT	-0.135
TGCGGAC	0.141
GCCATCC	-0.0529
TAAACTA	-0.126
CGACGGC	-0.033
GAAGATA	0.229
AGGAATC	0.0621
AATGCTT	-0.0224
CACGCCC	-0.0964
CGAGCTG	-0.00606
CCTCATC	-0.00328
ACTTTAC	-0.167
ACGGGTG	-0.0942
GAGGGGT	0.142
TACCGAA	0.0415
CCACCCT	-0.117
GACACTA	-0.0938
TTCTCAG	-0.000216
ACCACGT	-0.0317
